The whole screen tested about 220,000 compounds, of which about 2,300 (1%) were called active. This list was built around the results that the source calls inconclusive (neither active nor inactive); the mix of calls is not that of the screen. The call rests on the fitted dose curve; in most records, active means well fitted inhibition curve with a large enough effect; inconclusive means small, poorly fitted or top-dose-only effect, or effect the other way; inactive means no such curve, though single readings can be large or run the other way. Potencies of inconclusive entries are left out as doubtful fits.
Target: Neuropeptide S receptor (Homo sapiens) (UniProt Q6W5P4)
Assay: qHTS Assay for Antagonists of the Neuropeptide S Receptor: cAMP Signal Transduction; further: nearly all actives have a fitted effect of over 50% in size
Settings: CHO-NPSR cells, cAMP TR-FRET, antagonist mode; series mostly up to 38.3 µM
Potency means the concentration at half of the fitted maximal effect; tags describe the fitted curve by direction and shape.

Chain of UniProt Q6W5P4 (Q6W5P4 whole entry, looked up): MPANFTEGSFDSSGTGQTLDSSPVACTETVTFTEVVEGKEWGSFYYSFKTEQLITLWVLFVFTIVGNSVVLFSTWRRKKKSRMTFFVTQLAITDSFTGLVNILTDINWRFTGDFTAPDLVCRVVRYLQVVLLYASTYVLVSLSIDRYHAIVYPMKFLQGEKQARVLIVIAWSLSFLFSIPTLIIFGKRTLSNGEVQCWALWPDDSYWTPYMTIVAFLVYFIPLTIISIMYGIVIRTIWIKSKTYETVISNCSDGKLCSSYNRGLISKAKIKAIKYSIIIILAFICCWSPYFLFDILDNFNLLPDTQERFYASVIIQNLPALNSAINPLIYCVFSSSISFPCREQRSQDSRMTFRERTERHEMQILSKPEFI

Structure (SMILES)	Potency
CCOC(=O)N1CCN(C(=O)c2ccc(CS(=O)(=O)c3c(Cl)cccc3Cl)o2)CC1	inactive
CC(C)COc1ccc(C(=O)Nc2ccc(NC(=O)c3ccco3)c(Cl)c2)cc1	inconclusive [inhibitor, single point]
O=C1CC(Sc2nnnn2-c2ccccc2)C(=O)N1c1cccc(Cl)c1 (stereo not given)	inconclusive [inhibitor, single point]
COc1ccc(N/C(C)=C2/C(=O)C(=O)N(CCO)C2c2ccc(Br)cc2)cc1 (stereo not given)	inconclusive [inhibitor, single point]
COc1cc2nc(CCc3ccccc3)oc(=O)c2cc1OC	inactive
CCOC(=O)c1sc(Nc2cccc(C)c2C)nc1C	inconclusive [inhibitor, single point]
COc1ccccc1/C=C/C(=O)/C=C/c1ccccc1O	inconclusive [inhibitor, single point]
CCn1c2ccccc2c2cc(/C=N/NC(=O)c3ccccc3)ccc21	inactive
CCOc1oc(-c2ccc(OC)cc2)nc1C(F)(F)F	inconclusive [activator, single point]
O=C1C(Cl)=C(Nc2ccccc2)C(=O)c2ccccc21	inconclusive [inhibitor, single point]
Cc1[nH]c2ccccc2c1/C=N/Nc1nc(Nc2ccccc2)nc(N2CCOCC2)n1	inconclusive [inhibitor, single point]
CCOC(=O)N1CCN(C(=O)CSCC(=O)Nc2nc(-c3ccc(OC)cc3)cs2)CC1	inconclusive [inhibitor, single point]
COc1ccc(CN(C(=O)CSc2nnc(-c3ccc(F)cc3)o2)c2ccc(F)cc2)cc1	inconclusive [inhibitor, partial curve]
O=C(CCSc1ccccc1)Nc1nc2c(s1)COc1ccccc1-2	inactive
CC(=O)N(Cc1ccco1)C1(C(=O)NC2CCCC2)CCCCC1	inactive
COc1ccc(C2/C=C\CN(C(=O)Nc3ccccc3-c3ccccc3)CC(=O)N2Cc2ccc(F)cc2)cc1 (stereo not given)	active: 10 µM
COc1ccc(C2C3C=CCC(c4cccc(-c5ccc(C)cc5)c4)C3C(=O)N2Cc2ccccc2)cc1Cl (stereo not given)	active: 10 µM
COCCn1c(SCc2cccnc2)nnc1-c1c[nH]c2ccccc12	inconclusive [activator, partial curve]
CCCc1nc(SCC(=O)c2ccc(F)cc2)c2ccccc2n1	inconclusive [inhibitor, single point]
CC(=O)Nc1ccc(C(=O)OCC(=O)N(C)C2CCCCC2)cc1	inconclusive [inhibitor, single point]
CC(C)N(Cc1nc(-c2ccc(Cl)cc2)no1)C(=O)C(c1ccccc1)c1ccccc1	inconclusive [inhibitor, single point]
CCOc1ccc(S(=O)(=O)Nc2nc3ccccc3nc2-n2ccc(=NC(=O)c3cccs3)cc2)cc1	inconclusive [inhibitor, single point]
CCNC(=S)N1CCN(c2ccc([N+](=O)[O-])cc2)CC1	inactive
CCOC(=O)c1sc(NC(=O)CSc2nnc(-c3ccco3)n2CC)c(C(=O)OCC)c1C	inconclusive [inhibitor, partial curve]

Structure (SMILES)	Potency
CC(c1ccon1)N(C)Cc1cn(Cc2ccccc2)nc1-c1ccc2c(c1)OCO2 (stereo not given)	inconclusive [activator, partial curve]
CCOc1ccc(S(=O)(=O)NCc2ccccn2)cc1	inactive
O=C(CN(C(=O)CNS(=O)(=O)c1ccccc1)c1ccc2c(c1)OCCO2)NCc1ccco1	inactive
CC(Oc1ccc(NC(=O)c2ccco2)cc1)C(=O)N1c2ccccc2CC1C (stereo not given)	inconclusive [inhibitor, partial curve, poor fit]
C/C(Cl)=C\CSc1nnc2n(N)c(=O)c3ccccc3n12	inactive
CCC(=O)N1CCCc2cc(S(=O)(=O)N3CCCc4ccccc43)ccc21	inconclusive [inhibitor, single point]
CCCn1c(SCC(=O)N2c3ccccc3Sc3ccccc32)nc2ccccc21	inconclusive [inhibitor, single point]
COc1ccc(/C=C2\S/C(=N/S(=O)(=O)c3cccs3)NC2=O)cc1	inactive
O=C(/C=C/c1ccc(Br)o1)NC(c1ccccc1)c1ccccc1	inconclusive [inhibitor, single point]
O=[N+]([O-])c1c(Nc2ccccn2)cc(Cl)c2nonc12	active: 10 µM
CCc1cc(C(=O)COc2ccccc2F)c(O)cc1O	inconclusive [inhibitor, single point]
CCOC(=O)c1ccc2c(c1)nc(COc1ccc3ccccc3c1)n2CC	inconclusive [inhibitor, single point]
Cc1cc(C(=O)OCC(=O)c2cccc([N+](=O)[O-])c2)c2cccc(C)c2n1	inactive
N#Cc1c2c(c(-c3ccccc3Cl)[nH]c1=S)CCCC2	inconclusive [inhibitor, single point]
Cc1ccc2sc(N(CCCN(C)C)C(=O)c3ccc(Br)s3)nc2c1C	inconclusive [inhibitor, single point]
CC(C)C(c1nnnn1C1CCCC1)N1c2ccccc2CC1C (stereo not given)	inconclusive [inhibitor, single point]
NC(=O)C1=C[C@H](c2ccc(Br)cc2)C[C@H](OCc2ccc(CO)cc2)O1	inactive
CCN1C(=O)/C(=C\c2ccncc2)SC1=Nc1ccc(C)c(C)c1	inconclusive [inhibitor, single point]
CCCCSc1nc2c(cnn2-c2ccc(Cl)cc2)c(=O)[nH]1	inconclusive [activator, single point]
Cc1ccc(C)c(NC(=S)NCCc2c[nH]c3ccccc23)c1	inconclusive [activator, partial curve]
O=C(Nc1ccc(F)c(F)c1)c1cnc(-c2ccccc2)nc1-c1ccccc1	inconclusive [inhibitor, single point]
CS(=O)(=O)c1ncc(Cl)c(C(=O)Nc2ccc3ccccc3c2)n1	active: 10 µM
O=C(NC(=S)Nn1cnc2c(cnn2-c2ccccc2)c1=O)c1ccccc1	inactive
CC(=O)Nc1ccc(S(=O)(=O)Nc2nnc(CC(C)(C)C)s2)cc1	inactive

Structure (SMILES)	Potency
Oc1ccc(Br)cc1-c1ccn[nH]1	inactive
Cc1ccc(NC(=O)C(=O)NCCN2CCN(S(C)(=O)=O)CC2)cc1C	inactive
CN(C(=O)c1ccc(C#N)cc1)c1nnc(-c2ccccn2)s1	inconclusive [inhibitor, single point]
COc1ccc(OC)c(NC(=O)CSc2nnc(CNC(=O)COc3ccc(Cl)cc3)o2)c1	inconclusive [inhibitor, single point]
CC(=O)Nc1sc2c(c1C(c1ccccc1)N1CCOCC1)CCCC2 (stereo not given)	inconclusive [inhibitor, single point]
CCOc1ccc(NCc2nnc(SCc3ccccc3Cl)n2-c2ccccc2)cc1	inconclusive [inhibitor, partial curve, poor fit]
O=C(N/N=C/c1ccco1)C1(O)c2ccccc2-c2ccccc21	inactive
COC(=O)Cc1nnc(NC(=O)c2ccccc2)s1	inconclusive [inhibitor, single point]
CNC(=S)N=Nc1c(O)[nH]c2ccccc12	inactive
CCC(C)(C)n1nnnc1C(c1ccc2ncccc2c1)N1CCN(c2nc3ccccc3s2)CC1 (stereo not given)	inconclusive [inhibitor, partial curve]
Fc1ccccc1CSc1ncnc2c1oc1ccccc12	inconclusive [inhibitor, single point]
O=C(C1=C[C@H](c2coc3ccccc3c2=O)C[C@H](OCc2ccc(CO)cc2)O1)N1CCN(Cc2ccc3c(c2)OCO3)CC1	inconclusive [activator, full curve]
Cc1ccc(N2C(=O)c3cccc4c(N)ccc(c34)C2=O)c2cccnc12	inactive
Cc1ccc(C(C)n2cc(C(=O)NCc3cccnc3)nn2)cc1 (stereo not given)	inconclusive [inhibitor, single point]
CC1CCCCC1NC(=O)/C(C#N)=C/C=C/c1ccccc1[N+](=O)[O-] (stereo not given)	active: 10 µM
COc1ccccc1CNC(=O)CN(c1ccc(C)cc1)S(=O)(=O)c1c(C)nn(C)c1C	inconclusive [inhibitor, partial curve, poor fit]
CCOc1ccc2nc(NC(=O)c3cccc(-c4cc5ccccc5oc4=O)c3)sc2c1	inconclusive [inhibitor, single point]
CC1(C)N=C(SCC(=O)Nc2ccc(Cl)cc2Cl)C(c2ccccc2)=N1	inconclusive [inhibitor, single point]
Clc1ccc(-n2cccc2CN2CCc3c([nH]c4ccccc34)C2c2ccccn2)nc1 (stereo not given)	inconclusive [activator, partial curve]
Cc1cc(N2CCCC2)ccc1/C=N/n1cnnc1	inconclusive [inhibitor, single point]
CCCCn1c(SCC(=O)Nc2nccs2)nc2ccccc2c1=O	inactive
Cc1cccc(NC(=O)c2nc(-c3ccccc3)n(-c3ccccc3)n2)c1C	inconclusive [inhibitor, single point]

— PubChem BioAssay AID1461 (National Center for Advancing Translational Sciences (NCATS), 2008)
